Some of the results follow.
Tested on: HSkMC (human skeletal muscle cells)
Assay: cytotoxicity call (relative viability < 0.9)
Details: 10 µM

SMILES	cytotoxicity call
Cc1noc(C)c1S(=O)(=O)N(C)C[C@@H]1Oc2ccc(NC(=O)C3CC3)cc2CC(=O)N([C@H](C)CO)C[C@@H]1C	inactive
C[C@@H]1CN([C@H](C)CO)C(=O)c2cccc(NC(=O)Nc3ccc4c(c3)OCO4)c2O[C@@H]1CN(C)C(=O)Nc1ccc(C(F)(F)F)cc1	inactive
CC[C@@H](NC)C(=O)O	inactive
C[C@H]1CN([C@@H](C)CO)C(=O)c2cc(NC(=O)Nc3ccc(C(F)(F)F)cc3)ccc2O[C@H]1CN(C)S(=O)(=O)c1ccc(F)cc1	inactive
C[C@@H]1CN([C@@H](C)CO)C(=O)c2cc(NC(=O)C3CCCCC3)ccc2O[C@@H]1CN(C)Cc1ccc(Cl)c(Cl)c1	inactive
Cc1nccn1CCc1nc(N)nc(N)n1	inactive
CC1(C)OCC(CO)([N+](=O)[O-])CO1	inactive
C[C@@H]1CN([C@H](C)CO)C(=O)c2cccc(NC(=O)c3ccncc3)c2O[C@@H]1CN(C)S(=O)(=O)c1ccccc1	inactive
C[C@H]1CN([C@@H](C)CO)C(=O)c2cccc(NC(=O)Nc3ccc(C(F)(F)F)cc3)c2O[C@H]1CN(C)Cc1ccncc1	inactive
C[C@H]1CN([C@@H](C)CO)S(=O)(=O)c2ccc(C#CC3CCCCC3)cc2O[C@@H]1CN(C)C(=O)Cc1ccncc1	inactive
CN1CCN(C(=O)C[C@@H]2C=C[C@H](NS(=O)(=O)c3cccc(F)c3)[C@H](CO)O2)CC1	inactive
CCCCCCc1nc(-c2ccc(-c3ccc(Cl)c(Cl)c3)o2)cc2c1[Si](C(C)C)(C(C)C)OC2	active
COCC#Cc1cnc2c(c1)C(=O)N([C@H](C)CO)C[C@H](C)[C@@H](CN(C)C(C)=O)O2	inactive
COc1ccc(S(=O)(=O)Nc2ccc3c(c2)C(=O)N([C@H](C)CO)C[C@H](C)[C@@H](CN(C)Cc2ccc(C(F)(F)F)cc2)OCCCC[C@H](C)O3)cc1	inactive
CCCCc1oc2ccccc2c1C(=O)c1cc(I)c(OCCN(CC)CC)c(I)c1.Cl	inactive
COCCOC(=O)N1C(=O)[C@@]2(c3cc(C#CCCO)ccc31)[C@H](C(=O)Nc1nc3ccccc3s1)[C@H]1C(=O)O[C@H](c3ccccc3)[C@H](c3ccccc3)N1[C@@H]2c1ccc(O)cc1	inactive
CC1CCC(NC(=O)N(CCCl)N=O)CC1 (stereo not given)	inactive
CCCNC(=O)Nc1ccc2c(c1)OC[C@H](C)N(C(=O)C1CCOCC1)C[C@@H](C)[C@@H](OC)CN(C)C2=O	inactive
Cc1noc(C)c1NC(=O)N(C)C[C@H]1Oc2ccc(NS(=O)(=O)c3cccs3)cc2CC(=O)N([C@@H](C)CO)C[C@H]1C	inactive
Cl.Clc1cccc(Cl)c1N=C1NCCN1	inactive

SMILES	cytotoxicity call
OCCN1CCN(c2ncnc3c2ncn3[C@H]2CN(Cc3ccc(F)cc3)C[C@@H](CO)O2)CC1	inactive
C[C@@H]1CCCCO[C@H](CN(C)Cc2ccc3c(c2)OCO3)[C@@H](C)CN([C@H](C)CO)C(=O)c2cc(NC(=O)Nc3ccc(C(F)(F)F)cc3)ccc2O1	active
C[C@H](CO)N1C[C@H](C)[C@@H](CN(C)Cc2ccc(Oc3ccccc3)cc2)Oc2c(NC(=O)CCCCCC(=O)Nc3ccccc3N)cccc2C1=O	inactive
C[C@@H](O)C#Cc1ccc2c(c1)O[C@@H](CN(C)C(=O)c1ccncc1)[C@@H](C)CN([C@@H](C)CO)S2(=O)=O	inactive
Cc1noc(C)c1NC(=O)Nc1ccc2c(c1)CC(=O)N([C@H](C)CO)C[C@H](C)[C@H](CN(C)S(=O)(=O)c1ccccc1)O2	inactive
C[C@H](CO)N1C[C@H](C)[C@H](CN(C)C(=O)Nc2cccc3ccccc23)Oc2ccc(NC(=O)C3CCCCC3)cc2C1=O	inactive
C[C@H](CO)N1C[C@H](C)[C@H](CN(C)C(=O)Nc2cccc3ccccc23)Oc2ccc(NC(=O)CCC(F)(F)F)cc2C1=O	inactive
C[C@@H]1CN([C@H](C)CO)C(=O)c2cc(NC(=O)CCC(F)(F)F)ccc2O[C@H]1CN(C)S(C)(=O)=O	inactive
C[C@@H]1CN([C@H](C)CO)C(=O)c2cc(NC(=O)CCCN(C)C)ccc2O[C@H]1CN(C)S(=O)(=O)c1cn(C)cn1	inactive
C[C@H](CO)N1C[C@H](C)[C@H](CN(C)C(=O)CCC(F)(F)F)OCCCC[C@H](C)Oc2ccc(NS(=O)(=O)c3ccc(Cl)cc3)cc2C1=O	inactive
Cc1c(C(=O)Nc2ccc3ccccc3c2)oc2ccccc12	inactive
CC1(C)CC(NC(=O)c2ccc(Cl)c(S(=O)(=O)N(Cc3ccccc3)c3ccccc3)c2)CC(C)(C)N1	inactive
Cc1ccc(S(=O)(=O)N(C)C[C@H]2Oc3c(NC(=O)C4CCOCC4)cccc3C(=O)N([C@H](C)CO)C[C@H]2C)cc1	inactive
CC(=O)c1c(O)cc(O)cc1CC(=O)O	inactive
C[C@H]1CN([C@@H](C)CO)S(=O)(=O)c2ccc(C#Cc3ccccc3F)cc2O[C@H]1CN(C)CC1CCOCC1	inactive
Cc1ccc(S(=O)(=O)N(C)C[C@@H]2OCCCC[C@H](C)Oc3ccc(NC(=O)Nc4ccc(C(F)(F)F)cc4)cc3C(=O)N([C@@H](C)CO)C[C@@H]2C)cc1	inactive
CCCNC(=O)Nc1ccc2c(c1)C(=O)N(C)C[C@@H](OC)[C@H](C)CN(C(=O)C1CCOCC1)[C@H](C)CO2	inactive
Cc1ccc(S[C@]2(C(=O)NCCN3CCOCC3)CC(=O)N(C(C)C)[C@@H]2c2ccc(CO)cc2)cc1	inactive
C[C@H](CO)N1C[C@H](C)[C@H](CN(C)C(=O)Cc2cccnc2)Oc2ncc(C#Cc3ccccc3F)cc2C1=O	inactive
C[C@H]1CN([C@@H](C)CO)C(=O)Cc2cc(NS(=O)(=O)c3cn(C)cn3)ccc2O[C@H]1CN(C)CC1CC1	inactive
